Data on 70 molecules can be found in PubChem BioAssay AID488969 (Vanderbilt High Throughput Screening Facility, 2010).

In all, about 110,000 compounds were measured (“z-score”: median about -0.1, highest 2% from about 2 on). Some of the results follow. Calls of active or inactive are those of the source.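 How the source made its calls: active means z-score in the third read window above 3 or below -3; inactive means the rest.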

The experiment concerns the target Metabotropic glutamate receptor 8 (Rattus norvegicus) (UniProt P70579). Briefly: mGluR8 Gi/Go-coupled signaling modulation – cell-based, rat, thallium flux, HTS, primary screen (AID 488969). The settings on record: HEK293 rat mGluR8, GIRK (G protein-gated inwardly rectifying potassium channel) thallium flux, FluoZin2; at 10 µM; stronger effect = higher value; submaximal glutamate (EC20) added with thallium.
Sequence of UniProt P70579 (P70579 whole entry, looked up): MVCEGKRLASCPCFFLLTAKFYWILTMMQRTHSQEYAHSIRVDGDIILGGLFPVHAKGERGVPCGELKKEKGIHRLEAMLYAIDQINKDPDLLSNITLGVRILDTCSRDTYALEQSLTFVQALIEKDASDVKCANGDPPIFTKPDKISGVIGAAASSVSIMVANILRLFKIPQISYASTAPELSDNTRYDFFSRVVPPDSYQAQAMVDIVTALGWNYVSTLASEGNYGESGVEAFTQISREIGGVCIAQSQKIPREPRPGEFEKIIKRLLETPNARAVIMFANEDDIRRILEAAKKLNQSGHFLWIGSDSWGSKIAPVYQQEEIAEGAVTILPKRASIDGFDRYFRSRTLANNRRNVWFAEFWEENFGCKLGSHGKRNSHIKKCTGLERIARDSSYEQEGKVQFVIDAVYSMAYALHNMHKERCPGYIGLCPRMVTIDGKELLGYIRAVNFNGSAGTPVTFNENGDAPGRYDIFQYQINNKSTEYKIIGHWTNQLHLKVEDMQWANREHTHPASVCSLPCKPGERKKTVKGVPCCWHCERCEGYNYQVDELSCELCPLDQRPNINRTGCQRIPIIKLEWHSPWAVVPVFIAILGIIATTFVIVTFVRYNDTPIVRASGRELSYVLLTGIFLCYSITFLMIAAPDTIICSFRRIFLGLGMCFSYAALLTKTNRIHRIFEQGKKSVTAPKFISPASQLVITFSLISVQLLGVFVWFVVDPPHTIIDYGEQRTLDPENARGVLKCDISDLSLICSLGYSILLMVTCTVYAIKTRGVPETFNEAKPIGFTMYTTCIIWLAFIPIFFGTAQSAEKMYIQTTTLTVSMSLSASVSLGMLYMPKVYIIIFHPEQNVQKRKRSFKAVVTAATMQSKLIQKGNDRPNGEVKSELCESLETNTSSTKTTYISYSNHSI
`COc1ccccc1-c1coc2cc(OCC(=O)OCc3ccccc3)ccc2c1=O`: the z-score is -1.07.

Consider `COc1cccc(NC(=O)CCC(=O)Nc2cccc(OC)c2)c1`, for which the z-score is -0.279.

The molecule `CCOCC(=O)Nc1nnc(C)s1` showed a z-score of 1.02.

On to `CC1CN(S(=O)(=O)c2cccc(C(=O)OCC(=O)c3cccs3)c2)CC(C)O1` (stereo not given), for which the z-score is -0.116.

As to `O=C(Cn1cc2c(n1)CCCCC2)NC1CCN(Cc2ccccc2)CC1`, the z-score was -0.259.

Regarding `Cc1ccccc1N(CC(=O)NCCSCc1ccco1)S(C)(=O)=O`, the z-score was determined as 0.0968.

Turning to `CCn1cc(/C=N/NC(=O)c2cc3c(ccc4ccccc43)o2)c2ccccc21`, the z-score came out at 0.446.

The molecule `OCCN(CCO)CC(O)COCCC12CC3CC(CC(C3)C1)C2` (stereo not given) gave a z-score of 0.239.

As for `COc1ccccc1CN(Cc1nc2ccccc2c(=O)[nH]1)C(=O)Nc1ccc(C)cc1`, the z-score is -0.132.

Take `CCOC(=O)CSc1nc2cc3c(cc2cc1CC)OCCO3`: the z-score was -0.224.

`CC1(N2CCOCC2)C(=O)c2ccccc2C1=O`: the z-score was -0.0718.

Take `CC(Sc1nc2ccccc2[nH]1)C(=O)O` (stereo not given): the z-score was -0.0631.

In turn, `Cc1cc(Nc2ccccc2N2CCOCC2)n2ncnc2n1` displayed a z-score of 0.119.

With `O=C(c1cc2sccc2n1Cc1ccccc1)N1CCc2ccccc21`, the z-score is -1.27.

As to `CCN(C(=O)Cc1ccccc1OC)c1nnc(-c2ccncc2)s1`, the z-score was -0.0685.

For the molecule `Cc1ccnc(N2C(=O)c3ccccc3C2O)c1` (stereo not given), the z-score was -0.243.

On to `O=C(c1ccco1)c1n[nH]nc1-c1ccccc1`, for which the z-score was -0.0134.

In turn, `COc1ccc(C(C#N)N2N=C(c3ccccc3)CC2c2ccccc2)cc1OC` (stereo not given) returned a z-score of 0.0225.

Consider `O=C(c1cc(-c2ccccc2)on1)N1CCCC1`, for which the z-score is active: 3.32.

`CCOC(=O)c1c(C)[nH]c(C=Nc2ccccc2)c1O` had a z-score of 0.401.

In turn, `COc1cc(C2C(C#N)=C(N)Oc3cc(C)oc(=O)c32)cc2c1OCO2` (stereo not given) gave a z-score of 0.102.

On to `CCOc1ccc(/C=N/Nc2cc(=O)n(C)c(=O)n2C)cc1`, for which the z-score was -0.091.

Take `Cc1ccccc1/C=N/N1CCN(c2ccccc2)CC1`: the z-score is -0.218.

Molecule `CN(C)CC1CCCCC1C1(O)c2ccccc2CSc2sccc21` (stereo not given) returned a z-score of 1.47.

On to `FC(F)(F)c1nc(-c2cccnc2)ncc1-c1nnnn1-c1ccccc1`, for which the z-score is -0.145.

As for `O=C(CSc1ncccn1)n1c2c(c3ccccc31)CCCC2`, the z-score is -0.0215.

On to `O=C(COC(=O)C12CC3CC(CC(O)(C3)C1)C2)N1CCN(S(=O)(=O)c2ccc(Cl)cc2)CC1`, for which the z-score was -0.0539.

In the case of `C=CCc1cccc(Cl)c1OCCON1C(=O)CCC1=O`, the z-score is -0.121.

As for `CCc1ccccc1NC(=O)COc1ccc2oc(-c3ccc(OC)cc3)cc(=O)c2c1`, the z-score was determined as 0.154.

For the molecule `Nc1cccc(-n2nncc2-c2ccccc2)c1`, the z-score is -0.207.

`C=CCn1c(NC(C)c2cc(Cl)ccc2O)nc2ccccc21` (stereo not given): the z-score came to 0.902.

Take `CC(=O)N1CCc2cc(Br)cc(S(=O)(=O)NCCCN3CCCC(C)C3)c21` (stereo not given): the z-score stood at 0.264.

As to `CC(C)(C#N)Nc1ccccc1`, the z-score was -0.145.

`CCOC(=O)C1CCCN(c2c(NCC3CCCN3CC)c(=O)c2=O)C1` (stereo not given): the z-score was -0.227.

Regarding `NS(=O)(=O)c1ccc(NCc2ccccc2OCc2ccccc2F)cc1`, the z-score is -0.136.

`O=C(CCCn1c(=S)[nH]c2cc3c(cc2c1=O)OCO3)N1CCN(c2ccccn2)CC1`: the z-score is -0.0689.

As to `CC1=C(C(=O)Nc2ccccc2)C(c2ccc(C)o2)n2c(s/c(=C/c3ccccc3)c2=O)=N1` (stereo not given), the z-score is 0.641.

Consider `COc1ccc(-c2cc(C(F)(F)F)nc(SCC(=O)NCc3cccs3)n2)cc1OC`, for which the z-score amounted to 0.0226.

Molecule `COc1ccccc1N1CCN(C2CCN(S(=O)(=O)c3ccc4ccccc4c3)CC2)CC1` had a z-score of 0.0593.

As to `COc1ccc(/C=N/NC(=O)CN2CCSCC2)cc1C`, the z-score came out at 1.85.

Consider `CC(C)C(=O)Nc1ccc(C(=O)NNC(=O)NC2CCCCC2)cc1`, for which the z-score was -0.0237.

In the case of `COc1ccc(C(C)=O)cc1CSc1nnc(Nc2ccccc2C)s1`, the z-score is -0.517.

`COC(=O)c1ccc(COc2ccccc2/C=C(\C#N)C(=O)Nc2c(C)cc(C)cc2C)cc1`: the z-score is -0.309.

In the case of `COc1ccc(NC(=O)C2CCCN2S(=O)(=O)c2ccc3c(c2)CCC(=O)N3)c(OC)c1` (stereo not given), the z-score is -0.178.

`CN(C)C(=O)N1CCCC(C(=O)NCc2ccccc2)C1` (stereo not given): the z-score is -0.341.

Consider `CC(C)CNC(=O)COc1ccccc1[N+](=O)[O-]`, for which the z-score is -0.162.

As to `CNS(=O)(=O)c1cnccc1N1CCN(c2cccc(C(F)(F)F)c2)CC1`, the z-score was determined as 0.784.

`CCc1nc(N2CCC(C)CC2)c2oc3ccccc3c2n1`: the z-score was found to be 0.225.

`COc1ccc(-c2cc3nc(C)cc(N4CC(C)CC(C)C4)n3n2)cc1` (stereo not given): the z-score was found to be 0.175.

As to `Cc1ccc(Cn2nnc3c(=O)n(CC(=O)NCc4ccc5c(c4)OCO5)cnc32)cc1`, the z-score was -0.756.

`CC(C)c1ccc(OCC(=O)N(Cc2ccccc2)c2ccccn2)cc1`: the z-score is -0.499.

On to `CC(=O)N1c2ccccc2N(Cc2ccc(C)cc2C)C(=O)C1(C)C`, for which the z-score was -1.56.

With `O=C(CNC(=O)Cn1ccc2ccccc2c1=O)NCCCN1CCN(c2cccc(Cl)c2)CC1`, the z-score was 0.155.

On to `CC(C)P(=O)(Cc1cccc(C#N)c1)C(C)C`, for which the z-score is -0.151.

Turning to `CCCCCCn1c(SCC(=O)Nc2cc(C)on2)nc2ccccc2c1=O`, the z-score was -1.23.

With `COc1ccc(-n2nc(C(=O)NCC(=O)Nc3ccccn3)c3ccccc3c2=O)cc1`, the z-score is -0.21.

The molecule `COc1ccccc1-c1cc(C(F)(F)F)nc(S(=O)(=O)CCCC(=O)Nc2cc(C)on2)n1` came in with a z-score of 0.601.

Consider `CCc1ccc(N2CC(C(=O)N/N=C/c3cccc([N+](=O)[O-])c3)CC2=O)cc1` (stereo not given), for which the z-score is -0.401.

Regarding `CCOc1ccccc1OCC(=O)Nc1ccc(S(=O)(=O)Nc2ncccn2)cc1`, the z-score was -4.8e-05.

With `CCN(c1ccc(OCC(=O)OCC(=O)Nc2ccc(F)c(F)c2F)cc1)S(=O)(=O)c1ccccc1`, the z-score was -0.229.

`Cn1cnc([N+](=O)[O-])c1Oc1ccc2ccccc2c1` gave a z-score of 0.154.

For `CN1CCN(c2ccc([N+](=O)[O-])cc2NC(=O)c2ccccc2Cl)CC1`, the z-score was -0.38.

In the case of `Cc1nonc1NC(=O)CSc1nnc(-c2ccoc2C)n1-c1cccc(Cl)c1`, the z-score is -2.81.

As for `Cc1noc(C)c1S(=O)(=O)N1CCN(c2ccccc2)CC1`, the z-score is -0.073.

Turning to `Cc1cccc(NC(=O)CCC(=O)NCCO)c1`, the z-score is 0.483.

Consider `CCn1c(SCC(=O)N2CCCC2)nc2c1c(=O)n(C)c(=O)n2C`, for which the z-score is -0.146.

Regarding `Cc1nn(C)cc1NC(=O)CCSc1nc(-c2ccco2)cc(C(F)(F)F)n1`, the z-score was -0.539.

Take `O=C(CSc1nc2cc(Cl)ccc2s1)NC1CCCc2ccccc21` (stereo not given): the z-score is -0.115.

As to `O=C(Nc1ccccc1)N(CCCN1CCOCC1)Cc1ccccc1F`, the z-score worked out at 0.307.

`O=C(CSc1nc2ccccc2[nH]1)c1ccc(Cl)s1`: the z-score is 0.508.
